The results in this text go back to paper PMC12136788.

This is one part of the list.

T1: UNK ZnF1-3 (human, UniProt Q9C0B0 31-174)
T1 sequence: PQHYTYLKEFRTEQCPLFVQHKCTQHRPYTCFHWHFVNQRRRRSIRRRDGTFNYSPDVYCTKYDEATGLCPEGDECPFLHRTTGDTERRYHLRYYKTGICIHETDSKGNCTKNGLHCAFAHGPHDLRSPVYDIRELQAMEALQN

B1: chr9:96305504:96305505:+_ENSG00000048828_ENST00000277165|hu_hu|motif|central (ssRNA)
RNA: GGGAGUUCUACAGUCCGACGAUCAGCUGCCCAUUCUUUAAUGAUCACUGGUGAAAAUUCUGGUGGAAGUCUGUUCUUUCGGAAAGCAAGUCUCUCAGUUUUCUUUCUGCUUUCUGCCAAACUAAACAGGACUCCGUAAACAUACAACAGAGGAUUGAGCAUCA
B2: 112566168_112598772_489_CDS_ENSMUSG00000021754_ENSMUST00000109267|mouse|control|control (ssRNA)
RNA: GGGAGUUCUACAGUCCGACGAUCCGGGCGAUCCUCCAUCUUGUGCAGUCCUUUGAGGGUUUCUUUAUUCUCCAUCUCUCGACCGGAGGGGGCCGCUGCAGAGGGCGGCUCGGCCCCCGCGGGGCUCCGGGCGCCGCUGUCCCGCAACAGAGGAUUGAGCAUCA
B3: 117616667_117616787_4179_CDS_ENSMUSG00000025571_ENSMUST00000138299|mouse|control|control (ssRNA)
RNA: GGGAGUUCUACAGUCCGACGAUCUUUGGCACGUGACCAGCUAUGGGGAACAGCUACGGGAGGACUGGCUGGUGACUCACUGUUCUGAAUUAAAUCGUACCGGCCGUAAGAGUCAUCAAUGGAGGACUUACCUGGAGGCCCGAUCAACAGAGGAUUGAGCAUCA
B4: 96419434_96420881_1025_CDS_ENSMUSG00000023169_ENSMUST00000088452|mouse|control|control (ssRNA)
RNA: GGGAGUUCUACAGUCCGACGAUCCCAGGCUGAAAAUGCAUCCUCCUCUCCCAUGAGGGAUUUUAUGGCUGAAGGAAGUUCGUUUUUUACUAUGAAGAGGUAGCUCAGCAUCGCCCCAGUGUUCUGCAGAGAGGUGGCUCCGAACAACAGAGGAUUGAGCAUCA
B5: 59413454_59413574_593_CDS_ENSMUSG00000020108_ENSMUST00000020308|mouse|control|control (ssRNA)
RNA: GGGAGUUCUACAGUCCGACGAUCGGUCAACUGAAAGGUGGGCACCAGGCUGGGGUCGAGGGCCAGCUGAGCCACGCUAUGGCAGCUCUUGCCUUGCUCCACACACACGUCCAGCAGUGCCCCCCGCAGGCCGCACGGCUCACUCAACAGAGGAUUGAGCAUCA
B6: chr6:38654746:38654747:-_ENSG00000124767_ENST00000373365|hu_hu|FALSE|FALSE (ssRNA)
RNA: GGGAGUUCUACAGUCCGACGAUCAAAAUCCAGUGACUUCUUAGGAUCCUUCACUCGUAGCAUGGUCUGCUGCAAUAGAAAAUCCUUGGUACUGGGGUCCGCGUCGGAGCAGCAACUGAGGGCGGCCUCGUCCGUGAGGCCGCCCAACAGAGGAUUGAGCAUCA
B7: 45362181_45362301_7668_3pUTR_ENSG00000175387_ENST00000356825|human|control|control (ssRNA)
RNA: GGGAGUUCUACAGUCCGACGAUCUACCAUCUUUAAUUAAAAAUAAGUAAAUCAAAGAGCAUAUUUGGAGAAACUAAGAGCUGUUAACUGUUUGGAGGGUAAAAGAAUACUUUUCUCGAAAUUUUUUUGAAGAAAAAUCUAAAACAACAGAGGAUUGAGCAUCA
B8: chr18:31598358:31598359:-_ENSMUSG00000024261_ENSMUST00000025110|mus_hu|FALSE|FALSE (ssRNA)
RNA: GGGAGUUCUACAGUCCGACGAUCAUGCAUUUUUCAUAGAAUUUACAAACACUGUGAUAUCAAACACAUUCUCAAAAACUGCUAAAGUACUGACACAAAACCUGACUCAAAAUGUAAAUUUUUCAGUAGACUUAAUUUCUAACUCAACAGAGGAUUGAGCAUCA
B9: chr11:118894041:118894042:+_ENSG00000196655_ENST00000359005|hu_mus|motif|central (ssRNA)
RNA: GGGAGUUCUACAGUCCGACGAUCAGGUUCAUCCUAUGACCCAGGUCCAAAAGUGCCAGCCUUCUCUGCCACCUCGGGAGCGGGCUUCAGGUUUUGAUCAAACAGCUCGCAUCUGAUAGGCAUUUCCAAGGAGUAGAAUGGAUUCAACAGAGGAUUGAGCAUCA
B10: chr14:89338683:89338684:+_ENSG00000165533_ENST00000346301|hu_hu|hu_hu_hu_mus_False|78_78 (ssRNA)
RNA: GGGAGUUCUACAGUCCGACGAUCGUGGUUGUUGUGGACCAGGGCCAGCCUGAAGCACUGAUGGGCCAAGUUUGUAUCUCCGAUUCCCACAGCUAUGUGCCCCAGGUUGUACCAGACAUCAGCUGCCUCUUCUUCAUUUUCAGCCAACAGAGGAUUGAGCAUCA
B11: chr14:105707756:105707757:+_ENSMUSG00000053253_ENSMUST00000138283|mus_hu|FALSE|FALSE (ssRNA)
RNA: GGGAGUUCUACAGUCCGACGAUCAUUUAUUUUUCUUAUAAAGGACAUUUGGUAUUCCCACAUUUUCUUAAAAUUUGUCCUAAAACAAAUUCUAUCUUUAACACUCACGUUUCUAAAUAUAUAUAUGUGUGUGUGUAUAUAUAUCAACAGAGGAUUGAGCAUCA
B12: chrX:71549400:71549401:+_ENSMUSG00000019087_ENSMUST00000019231|mus_hu|mus_mus_mus_hu_False|8_8 (ssRNA)
RNA: GGGAGUUCUACAGUCCGACGAUCGCAGUAGGAAGAGGGAAGCUCUUCAGUCCAGUGCGCUGCAGGGUGGGAAAGCAACAACACGGACACCGUCCCACCCUCAACCCCCCCACUGGCACAGGGUCACAUCUGGGUCAUCAAAGACAACAGAGGAUUGAGCAUCA
B13: chrX:140365796:140365797:-_ENSMUSG00000031285_ENSMUST00000033642|mus_mus|FALSE|FALSE (ssRNA)
RNA: GGGAGUUCUACAGUCCGACGAUCCUUCUCAUUACUUAAUGCCUGCAAGGUUCUGGUUCUGUAGAAGCUACAGUGGGCACUAUGAGUGGGACUUGGAAGUCCAUUCAUCCGUGACCCUCUCAUAUUUCUAGAUGCUUUGUCUCGCAACAGAGGAUUGAGCAUCA
B14: chr15:72934872:72934873:-_ENSMUSG00000036698_ENSMUST00000044113|mus_mus|motif|central (ssRNA)
RNA: GGGAGUUCUACAGUCCGACGAUCGACAUUUGGUCUGGGGAUACAUUUCAUAUUAAAAGUGUCACAAGUAAGCAUGGGCGGCGGCAGAAAGUACUUUGCUUCCAGUACUUUGGCCCAUCAGAAAGAAAACCUAUCCUUCAAGGUCAACAGAGGAUUGAGCAUCA

This experiment deals with T1, UNK ZnF1-3. In words: nsRBNS (natural sequence RNA bind-n-seq); RBNS binding buffer (assumed for nsRBNS): 25 mM Tris pH 7.5, 150 mM KCl, 3 mM MgCl2, 0.01% Triton X-100, 500 ug/ml BSA, 20 U/ml SUPERase-In, 4 C; UNK is unkempt and MSI1 is Musashi-1; names of the RNAs are library labels; protein concentration not given here; high values mean tight binding.
B1 gave a binding signal of 1.21 enrichment R.

For the molecule B2, the binding signal is 0.66 enrichment R.

With B3, the binding signal was determined as 2.09 enrichment R.

Consider B4, for which the binding signal is 1.34 enrichment R.

In the case of B5, the binding signal is 0.45 enrichment R.

B6: the binding signal is 0.895 enrichment R.

With B7, the binding signal came to 1.18 enrichment R.

The molecule B8 displayed a binding signal of 0.927 enrichment R.

Regarding B9, the binding signal is 1.16 enrichment R.

B10 came in with a binding signal of 0.717 enrichment R.

B11 showed a binding signal of 0.687 enrichment R.

Regarding B12, the binding signal stood at 1.27 enrichment R.

With B13, the binding signal was determined as 0.399 enrichment R.

For the molecule B14, the binding signal is 0.846 enrichment R.
